Data: a compilation of properties of binary mixtures (doi:10.1016/j.molliq.2016.08.084)
Some of these densities may be calculated back from excess volumes.

Assay: xn = mol fraction of the nth substance listed
Conditions: 101 kPa

CCCC[n+]1ccn(C)c1.F[B-](F)(F)F + O
mass density [kg/m3]
Conditions	283.15 K	293.15 K	303.15 K	313.15 K	323.15 K	343.15 K	353.15 K	363.15 K
x2 = 0	1212	–	–	1190.5	1183.4	1169.5	1162.6	1155.8
x2 = 0.034	1211	–	–	1189.4	1182.4	1168.4	1161.6	–
x2 = 0.0615	1210.1	–	–	–	–	1167.5	1160.6	–
x2 = 0.1135	1208.5	1201.2	1194	–	1179.8	1165.8	–	1152
x2 = 0.2063	1205.4	–	–	–	–	1162.6	1155.6	1148.7
x2 = 0.2802	–	1194.9	1187.6	–	–	1159.2	1152.2	–
x2 = 0.3977	1195.9	–	–	–	–	–	–	1138.3
